Laboratory results from the supplement of paper PMC11417369.
± gives the standard deviation of the averaged measurements. The list shows a part of the results.

System: PfAP2-G AP2 domain (GST-tagged)
Assay: gcPBM binding intensity (ln(normalized median fluorescence intensity)); higher = stronger DNA binding
Summary of the method: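 Alexa488 anti-GST antibody, scanned at 488 nm, detected GST-tagged P. falciparum DNA-binding domains that had been expressed in E. coli and incubated for 1 h on an Agilent 4 × 180k array. The array carried primer-extended double-stranded 36-bp intergenic genomic probes and negative controls. Binding intensity is the highest Masliner-normalised natural-log median intensity across replicate spots of either orientation of each probe.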

Point of comparison: “AAAATACACAACATATATATATATATATATATATAT [XGTACX_negctrl_site21]”, “gcPBM binding intensity (ln)” value 9.86 ± 0.31. Against it:
- AGATTATATATATGTATATATGTATATATTTATATA [CACACA_negctrl_site1797] — within error, 9.48 ± 0.2
- TCTACAAGGCTTGATCGTACAATTTGAATGTATTTG [XGTACX_site7698] — higher, 10.7 ± 0.52
- CTCAACATATACGTAACACACATATATATATATATA [CACACA_site3838] — within error, 10.2 ± 0.18
- AAAATAACGAGTCAAACACACATATATATATATATA [CACACA_site2039] — within error, 10.1 ± 0.25
- AGCATAAACAATTTTTGAAAAAATATACACTCATAG [CACACA_negctrl_site890] — within error, 9.935 ± 0.007
- TATATATATATATACACACACACAAAAAAAAAAAAA [CACACA_site1505] — within error, 10.3 ± 0.95
- AACATATTTTTAAATACACACACATAAAAAAAAAAA [CACACA_site8279] — within error, 10.1 ± 0.28
- TATCTCTCTTTCTGCTGTACATAAAAATTATATAAT [XGTACX_site5961] — higher, 11.2 ± 0.83
- AGAAAATACACGCATACACACACACCCACCCACATA [CACACA_site8115] — higher, 10.6 ± 0.35
- CAAAAAAAGAAAGCTACACACATTTATGTGCTATAT [CACACA_site2777] — within error, 9.835 ± 0.078
- TATATATAATATACATGTACAAATGTATTTAAAAAT [XGTACX_site6090] — higher, 10.9 ± 0.42
- TCATATTTGCCTTTTTATTTAGAACACAAAAAAAAA [CACACA_negctrl_site1152] — within error, 10.3 ± 0.44
- TAAATAGCCAAACGCACACCCACAAAAAAAAAAAAA [CACACA_site1554] — within error, 10.2 ± 0.59
- ATTATAATAGTTAAATGTACACACTAACTACATGGA [XGTACX_site6918] — higher, 11.3 ± 0.69
- AATTAAAAATTCAAGTGTACTTTTATATTATTATAC [XGTACX_site4106] — higher, 11.5 ± 1.1
- ATTCGGATATATATCACACATAACTTTAATAATATA [CACACA_site5720] — within error, 9.81 ± 0.085
- AATTAAAAAATTTATGCACACTTTAAAAAAAAAAAA [CACACA_site5962] — within error, 10 ± 0.32
- ATAATAAAATAAGAAGCACACAAATATTATATATAA [CACACA_site9319] — within error, 10.04 ± 0.021
- TTCTTCAATAATAAGTGTACATATGCATACATTATA [XGTACX_site1502] — higher, 11.2 ± 0.69
- AAAAAAAATAAAAATAGTACTCAAAAAATTATGAAT [XGTACX_site3073] — higher, 11.3 ± 0.67
- ATATTAATTTCTTATGCATGTTCTACCAAATTGTAT [TGCATGCA_site38] — within error, 10.06 ± 0.064
- GATATGATATGATATGCATGTAACAAATTTTTTTAA [TGCATGCA_site268] — within error, 9.65 ± 0.12
- AAAAAAAAATATATATATATATATATATTTATGTAT [GTGCAC_negctrl_site483] — within error, 9.54 ± 0.042
- ACACATTCGAAAAATTGTACATATATAACAGAATAT [XGTACX_site7106] — higher, 11.1 ± 0.7
- AGTCATATAAATAGTAGTACTGTGTGTGAAGAAAAA [XGTACX_site5056] — higher, 11.3 ± 0.73
- ACAAATATGAGAAATTGTACATATAATAAAATAGTA [XGTACX_site2573] — higher, 10.9 ± 0.57
- GACTGCACTTTAAGCACACAAATATATTTTTTTTAT [CACACA_site1249] — within error, 10.2 ± 0.12
- AATATTTTTTAAATGTGTACATAGGTATAGCACACA [XGTACX_site8690] — higher, 11.4 ± 0.91
- AATTATTCTCTTTTCATTTGAACAATATGCTTAAAA [CACACA_negctrl_site995] — within error, 9.98
- ATCAAATTTGGACATGCATGTGTGTGTAAAACCATG [TGCATGCA_site309] — higher, 10.6 ± 0.24
- ATATTAGTCGAATGATGTACACACATACAAAACATT [XGTACX_site8613] — higher, 11.3 ± 0.74
- TTTTTTTTTAAATATACACACACATTTATACATATA [CACACA_site9122] — within error, 10 ± 0.14
- TTTGGAATATAATATTGTACATATTATATATATATA [XGTACX_site3187] — higher, 11 ± 0.7
- TTCTATTATGTGACTCAATTCTTCATGGGTGTATAA [TGCATGCA_negctrl_site140] — within error, 10.3 ± 0.18
- AATATATATAACGTTGGTACACAAAAATTATTAAAT [XGTACX_site8572] — higher, 11.2 ± 0.66
- TTATTTATTTTTATATGTACACAAAAAAAAAAAAAA [XGTACX_site1459] — higher, 11.5 ± 1.1
- TTCTCAAATATAATAAAATTATAAAGTGACCTAACT [GTGCAC_negctrl_site493] — within error, 10.2 ± 0.36
- TAATGGATTATACGTGCACACATATATACAAATAAA [CACACA_site8116] — within error, 10.6 ± 0.52
- CCTCATCCACTATGCACACAAAAAAGAAATACACTA [CACACA_site3422] — within error, 10.5 ± 0.47
- TTTTTTTTTTTTTTAACACACATATATATATTTTTC [CACACA_site1922] — within error, 9.74 ± 0.28
- TATATTTTACTCTTCACACATATACTCAATTTATAT [CACACA_site5357] — higher, 10.3 ± 0.13
- AAAAGAAAAAGAAAAACACACATAAATATAAATATA [CACACA_site1879] — within error, 9.55 ± 0.16
- CATATTTGGAAACACACACACATATTTATATATATA [CACACA_site3569] — within error, 10.1 ± 0.23
- AAAATTTTCTTTTTATGTACACATAATTTTACCGGA [XGTACX_site5276] — higher, 11.4 ± 0.73
- AAAACAATAATATACTGTACATATATATAATAACAT [XGTACX_site6188] — higher, 11.1 ± 0.6
- CAATATTTTTTATAGGGTACAAAAGATAAAAAAAAA [XGTACX_site6298] — higher, 11.2 ± 0.69
- AAATTCAGGTTATATTTTAATTTTTTTTTGTTTTTT [CACACA_negctrl_site924] — within error, 9.49 ± 0.2
- CATACACATACACATACACACGCATAGAAACATACG [CACACA_site8666] — within error, 10.4 ± 0.26
- AATTTTTCATCAAGTTGTACAATTATTTGTTTGTTT [XGTACX_site3113] — higher, 11.3 ± 0.73
- TTCTTTTTAATTTATTTTTTCTTATAACAAGAAAAC [CACACA_negctrl_site201] — within error, 10 ± 0.071
- TGCTAATAATTATTTGTTTAGCAACAAAAAAAAAAA [CACACA_negctrl_site1541] — within error, 9.63 ± 0.22
- TAATTAAAAAATAAAAAAAAAAAAAATTAAAACAAA [CACACA_negctrl_site500] — lower, 9.38 ± 0.16
- GTACATACATAAAACACACACATATATATATATATA [CACACA_site1826] — higher, 10.7 ± 0.33
- AAAAAAAAAAAAAAAACATGCAAAATAATATATATA [TGCATGCA_site68] — within error, 10.2 ± 0.27
- AGAAAAGGACATATATGTACTTATCAATATAGAAAC [XGTACX_site1042] — higher, 11.4 ± 0.87
- TTCTTTTCTTTTTTCTTTTTTTTTTTCTTTTCTTTT [GTGCAC_negctrl_site630] — within error, 9.66 ± 0.16
- ATAAAATGAAATATATGTACGCATCACTTGTTGAAC [XGTACX_site4530] — higher, 11.4 ± 0.79
- TCACATATGTTCCATTGTACTTGTAGTAATTTTTTC [XGTACX_site6473] — higher, 11.1 ± 0.66
- GTAATATGTATCCATACACACATACATTTTATTTGC [CACACA_site4640] — within error, 10.3 ± 0.23
- TGATCAATGGATTTAACACACAAAAAAAAAAAAAAA [CACACA_site3845] — within error, 9.7 ± 0.28
- TTTTGTTTTAAAAGTACACACTTTTAATTAGATTTC [CACACA_site4788] — higher, 11.5 ± 1
- TTTTTTTTCTTCAAGCGTACTTATTTGTAGAAAAAA [XGTACX_site1728] — higher, 11.2 ± 0.96
- ATATGTGGAAATAGAGCACACATATATATAATATAT [CACACA_site8194] — within error, 10.1 ± 0.13
- TATGTATATATATAAAGTACGCAAATTTATAATAAG [XGTACX_site8744] — higher, 11.5 ± 0.98
- ATTTATTTTTTACATTGTACATATTTATTCCTTTTA [XGTACX_site8028] — higher, 11.1 ± 0.51
- TATAACATTTTTTTCAAAATAGCTTTAGAAATAAAG [CACACA_negctrl_site718] — within error, 9.62 ± 0.028
- TTATTTTCAAAATGTTGTACACACAAAAAAAAAAAA [XGTACX_site3151] — higher, 11.4 ± 0.93
- TTTTTTTTTTTTTTTGCATGCAGGTTTTTACCCCTT [TGCATGCA_site381] — within error, 9.84 ± 0.51
- TATATATATATATACACACACACATATATATATATA [CACACA_site774] — within error, 10.3 ± 0.76
- CCCATTTAATATTGAGTGCATTTAAATAAATGTATT — within error, 10.2 ± 0.32
- TTTTACAAAGTATGATGTACAAGTATATATAAATAT [XGTACX_site2072] — higher, 11.1 ± 0.72
- ACTAACATATATTCAACACACATATACCTTCAACCC [CACACA_site3011] — within error, 9.98 ± 0.014
- AAAAAAAAGAATTTACGTACTTATTATTTATATTTT [XGTACX_site5701] — higher, 11.2 ± 0.73
- ACTTTTTATTTTTTACTATATATATATATATATATG [TGCATGCA_negctrl_site463] — within error, 10.11 ± 0.099
- TACATGAATAAACTTACACACACCCATGCATACATA [CACACA_site97] — within error, 10.15 ± 0.099
- TGAAAAGGAAAATTTTGTACATATACATCAAGGATA [XGTACX_site656] — higher, 10.9 ± 0.38
- AACATAAGTAAGAATACATGCGGAAATTATATAGAA [TGCATGCA_site112] — within error, 9.985 ± 0.021
- TATAAATTTAAAATGACACACACTAAAGTTATTTAA [CACACA_site6700] — within error, 10.1 ± 0.26
- TAAATATTATAAATGATACACACTTAAAATACTCAC [CACACA_site2710] — within error, 10.1 ± 0.18
- TCCCTTAAAATGATATGTACATAAAAATAAAAAAAA [XGTACX_site836] — higher, 11.4 ± 0.88
- CATATATATATATATATATATATATTTATTTATTTA [TGCATGCA_negctrl_site165] — within error, 9.77 ± 0.32
- GTCATCAAGTATTAAGTGCATTAAAAATAAAATATA — within error, 10.2 ± 0.34
- TAAGGACTAATATTTGAACACACATATAATATATAC [CACACA_site9325] — within error, 10.1 ± 0.078
- TATATATTTGTTCACACACACACAAAAAAAAAAAAA [CACACA_site2475] — within error, 10.2 ± 0.7
- TTAAAAGAAAATAACACACACAAAAAAAAAAAAAAA [CACACA_site2117] — within error, 9.79 ± 0.42
- GTATATAATATTAGTGCACACACAAAAATGTACTAA [CACACA_site8112] — higher, 11 ± 0.65
- CTTTTTTTTTGATGTTGTACATATATATTATATAAT [XGTACX_site1321] — higher, 11.3 ± 0.84
